Measured values as given in article PMC12820563.
The list shows a part of the results. The list includes weakly bound sequences.

Molecular target: T1, MBP-FoxP3dN (UniProt Q99JB6)
T1 sequence: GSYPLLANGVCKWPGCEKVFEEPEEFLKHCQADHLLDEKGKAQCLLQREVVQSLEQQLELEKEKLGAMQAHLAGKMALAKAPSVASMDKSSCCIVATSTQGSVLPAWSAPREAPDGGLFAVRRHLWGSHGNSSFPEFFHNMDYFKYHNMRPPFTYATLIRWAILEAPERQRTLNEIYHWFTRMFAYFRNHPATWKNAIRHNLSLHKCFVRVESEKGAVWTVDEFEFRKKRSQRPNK
Test: PD-seq (MBP pull-down with sequencing)
Details: 20 mM Tris-HCl pH 7.5, 100 mM NaCl, 1.5 mM MgCl2, 0.4 uM protein, 0.1 uM dsDNA library, 30 min, room temperature, amylose pull-down; high values mean tight binding; double strand, one strand shown

**Q.** “GATGATTGTTCTCCCAGCTGATGAATTCGGCCAATCGAGTAAACAAATTTTCCTAATCTTTCTGTTCAAGCGCCATCTAC” was tested. Which binding signal (RPM ratio (pull-down/input)) did it give?
**A.** 0.501

**Q.** For “GATGATTGTTCTCCCAGCTGATGAATTAAAATCGTCGAGTAAACAAATTTTCCTAATCTTTCTGTTCAAGCGCCATCTAC”, which binding signal (RPM ratio (pull-down/input)) is on record?
**A.** 0.286

**Q.** For “GATGATTGTTCTCCCAGCTGATGAATTCAAGCACTCGAGTAAACAAATTTTCCTAATCTTTCTGTTCAAGCGCCATCTAC”, which binding signal (RPM ratio (pull-down/input)) is on record?
**A.** 0.542

**Q.** “GATGATTGTTCTCCCAGCTGATGAATTTTATAGGTCGAGTAAACAAATTTTCCTAATCTTTCTGTTCAAGCGCCATCTAC” was tested. Which binding signal (RPM ratio (pull-down/input)) did it give?
**A.** 0.391

**Q.** With “GATGATTGTTCTCCCAGCTGATGAATTATCATCGTCGAGTAAACAAATTTTCCTAATCTTTCTGTTCAAGCGCCATCTAC” as the sequence, how does the binding signal (RPM ratio (pull-down/input)) read?
**A.** 0.418

**Q.** With “GATGATTGTTCTCCCAGCTGATGAATTTTTTAACTCGAGTAAACAAATTTTCCTAATCTTTCTGTTCAAGCGCCATCTAC” as the sequence, how does the binding signal (RPM ratio (pull-down/input)) read?
**A.** 0.215

**Q.** “GATGATTGTTCTCCCAGCTGATGAATTCGGGCGTTCGAGTAAACAAATTTTCCTAATCTTTCTGTTCAAGCGCCATCTAC” was tested. Which binding signal (RPM ratio (pull-down/input)) did it give?
**A.** 0.948

**Q.** With “GATGATTGTTCTCCCAGCTGATGAATTCATCTGTTCGAGTAAACAAATTTTCCTAATCTTTCTGTTCAAGCGCCATCTAC” as the sequence, how does the binding signal (RPM ratio (pull-down/input)) read?
**A.** 0.475

**Q.** For “GATGATTGTTCTCCCAGCTGATGAATTCACATGATCGAGTAAACAAATTTTCCTAATCTTTCTGTTCAAGCGCCATCTAC”, which binding signal (RPM ratio (pull-down/input)) is on record?
**A.** 0.312

**Q.** With “GATGATTGTTCTCCCAGCTGATGAATTGGGGAGTTCGAGTAAACAAATTTTCCTAATCTTTCTGTTCAAGCGCCATCTAC” as the sequence, how does the binding signal (RPM ratio (pull-down/input)) read?
**A.** 0.363

**Q.** “GATGATTGTTCTCCCAGCTGATGAATTTGAGAGGTCGAGTAAACAAATTTTCCTAATCTTTCTGTTCAAGCGCCATCTAC” was tested. Which binding signal (RPM ratio (pull-down/input)) did it give?
**A.** 0.301

**Q.** How did the binding signal (RPM ratio (pull-down/input)) turn out when “GATGATTGTTCTCCCAGCTGATGAATTGCGCTCGTCGAGTAAACAAATTTTCCTAATCTTTCTGTTCAAGCGCCATCTAC” was run?
**A.** 1.35

**Q.** For “GATGATTGTTCTCCCAGCTGATGAATTCTGCCTGTCGAGTAAACAAATTTTCCTAATCTTTCTGTTCAAGCGCCATCTAC”, which binding signal (RPM ratio (pull-down/input)) is on record?
**A.** 5.17

**Q.** For “GATGATTGTTCTCCCAGCTGATGAATTAACCATCTCGAGTAAACAAATTTTCCTAATCTTTCTGTTCAAGCGCCATCTAC”, which binding signal (RPM ratio (pull-down/input)) is on record?
**A.** 0.336

**Q.** For “GATGATTGTTCTCCCAGCTGATGAATTGAGGTCTTCGAGTAAACAAATTTTCCTAATCTTTCTGTTCAAGCGCCATCTAC”, which binding signal (RPM ratio (pull-down/input)) is on record?
**A.** 0.468

**Q.** With “GATGATTGTTCTCCCAGCTGATGAATTCACCGGTTCGAGTAAACAAATTTTCCTAATCTTTCTGTTCAAGCGCCATCTAC” as the sequence, how does the binding signal (RPM ratio (pull-down/input)) read?
**A.** 0.264

**Q.** With “GATGATTGTTCTCCCAGCTGATGAATTGTGGTCCTCGAGTAAACAAATTTTCCTAATCTTTCTGTTCAAGCGCCATCTAC” as the sequence, how does the binding signal (RPM ratio (pull-down/input)) read?
**A.** 1.06

**Q.** Which binding signal (RPM ratio (pull-down/input)) does the source give for “GATGATTGTTCTCCCAGCTGATGAATTTCTCGGGTCGAGTAAACAAATTTTCCTAATCTTTCTGTTCAAGCGCCATCTAC” here?
**A.** 0.193

**Q.** For “GATGATTGTTCTCCCAGCTGATGAATTAATTCATTCGAGTAAACAAATTTTCCTAATCTTTCTGTTCAAGCGCCATCTAC”, which binding signal (RPM ratio (pull-down/input)) is on record?
**A.** 0.344

**Q.** With “GATGATTGTTCTCCCAGCTGATGAATTCATACATTCGAGTAAACAAATTTTCCTAATCTTTCTGTTCAAGCGCCATCTAC” as the sequence, how does the binding signal (RPM ratio (pull-down/input)) read?
**A.** 0.538

**Q.** With “GATGATTGTTCTCCCAGCTGATGAATTATAAGTCTCGAGTAAACAAATTTTCCTAATCTTTCTGTTCAAGCGCCATCTAC” as the sequence, how does the binding signal (RPM ratio (pull-down/input)) read?
**A.** 0.422

**Q.** Which binding signal (RPM ratio (pull-down/input)) does the source give for “GATGATTGTTCTCCCAGCTGATGAATTCGGGATTTCGAGTAAACAAATTTTCCTAATCTTTCTGTTCAAGCGCCATCTAC” here?
**A.** 0.323

**Q.** “GATGATTGTTCTCCCAGCTGATGAATTTCTTCATTCGAGTAAACAAATTTTCCTAATCTTTCTGTTCAAGCGCCATCTAC” was tested. Which binding signal (RPM ratio (pull-down/input)) did it give?
**A.** 0.246

**Q.** “GATGATTGTTCTCCCAGCTGATGAATTGACGGTGTCGAGTAAACAAATTTTCCTAATCTTTCTGTTCAAGCGCCATCTAC” was tested. Which binding signal (RPM ratio (pull-down/input)) did it give?
**A.** 0.57

**Q.** Which binding signal (RPM ratio (pull-down/input)) does the source give for “GATGATTGTTCTCCCAGCTGATGAATTCATCCGGTCGAGTAAACAAATTTTCCTAATCTTTCTGTTCAAGCGCCATCTAC” here?
**A.** 0.268

**Q.** Which binding signal (RPM ratio (pull-down/input)) does the source give for “GATGATTGTTCTCCCAGCTGATGAATTTGGCATTTCGAGTAAACAAATTTTCCTAATCTTTCTGTTCAAGCGCCATCTAC” here?
**A.** 6.16

**Q.** How did the binding signal (RPM ratio (pull-down/input)) turn out when “GATGATTGTTCTCCCAGCTGATGAATTTTCACTATCGAGTAAACAAATTTTCCTAATCTTTCTGTTCAAGCGCCATCTAC” was run?
**A.** 0.375

**Q.** For “GATGATTGTTCTCCCAGCTGATGAATTTGAAGCATCGAGTAAACAAATTTTCCTAATCTTTCTGTTCAAGCGCCATCTAC”, which binding signal (RPM ratio (pull-down/input)) is on record?
**A.** 0.792

**Q.** With “GATGATTGTTCTCCCAGCTGATGAATTACGTTACTCGAGTAAACAAATTTTCCTAATCTTTCTGTTCAAGCGCCATCTAC” as the sequence, how does the binding signal (RPM ratio (pull-down/input)) read?
**A.** 1.32

**Q.** How did the binding signal (RPM ratio (pull-down/input)) turn out when “GATGATTGTTCTCCCAGCTGATGAATTCTTCTATTCGAGTAAACAAATTTTCCTAATCTTTCTGTTCAAGCGCCATCTAC” was run?
**A.** 0.277

**Q.** How did the binding signal (RPM ratio (pull-down/input)) turn out when “GATGATTGTTCTCCCAGCTGATGAATTAGGAGCGTCGAGTAAACAAATTTTCCTAATCTTTCTGTTCAAGCGCCATCTAC” was run?
**A.** 0.479

**Q.** Which binding signal (RPM ratio (pull-down/input)) does the source give for “GATGATTGTTCTCCCAGCTGATGAATTCGACACGTCGAGTAAACAAATTTTCCTAATCTTTCTGTTCAAGCGCCATCTAC” here?
**A.** 0.687
